Measurements published in article PMC9911399, “Two distinct binding modes provide the RNA-binding protein RbFox with extraordinary sequence specificity”.
Positions count from the first letter of the chain named. This is one part of the list.

T1: RBFOX1 RRM (Homo sapiens, UniProt Q9NWB1 109-208)
T1 sequence: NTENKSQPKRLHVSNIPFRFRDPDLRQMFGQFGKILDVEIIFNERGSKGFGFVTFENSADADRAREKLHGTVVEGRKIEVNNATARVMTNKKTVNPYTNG

B1: UACUCGU (DNA:RNA)
RNA: GGGAGACCGGAAUUCAGAUUGUCCUACUCGUUUAAAUCCCGUCGUAGCCACCA
DNA 1: CAATCTGAATTCCGGTCTCCC
DNA 2: TGGTGGCTACGACGGGATT
B2: AUUAGCC (DNA:RNA)
RNA: GGGAGACCGGAAUUCAGAUUGUCCAUUAGCCUUAAAUCCCGUCGUAGCCACCA
DNA 1: CAATCTGAATTCCGGTCTCCC
DNA 2: TGGTGGCTACGACGGGATT
B3: CGGAGGA (DNA:RNA)
RNA: B2 RNA with A25C, U26G, U27G, C30G, C31A
DNA 1: CAATCTGAATTCCGGTCTCCC
DNA 2: TGGTGGCTACGACGGGATT
B4: AUUGCCC (DNA:RNA)
RNA: B2 RNA with A28G, G29C
DNA 1: CAATCTGAATTCCGGTCTCCC
DNA 2: TGGTGGCTACGACGGGATT
B5: AGCGGUU (DNA:RNA)
RNA: B2 RNA with U26G, U27C, A28G, C30U, C31U
DNA 1: CAATCTGAATTCCGGTCTCCC
DNA 2: TGGTGGCTACGACGGGATT
B6: GUUAGGU (DNA:RNA)
RNA: B2 RNA with A25G, C30G, C31U
DNA 1: CAATCTGAATTCCGGTCTCCC
DNA 2: TGGTGGCTACGACGGGATT
B7: UAAAGAA (DNA:RNA)
RNA: B2 RNA with A25U, U26A, U27A, C30A, C31A
DNA 1: CAATCTGAATTCCGGTCTCCC
DNA 2: TGGTGGCTACGACGGGATT
B8: UUGCCUA (DNA:RNA)
RNA: B1 RNA with A26U, C27G, U28C, G30U, U31A
DNA 1: CAATCTGAATTCCGGTCTCCC
DNA 2: TGGTGGCTACGACGGGATT
B9: CAGAAGC (DNA:RNA)
RNA: B2 RNA with A25C, U26A, U27G, G29A, C30G
DNA 1: CAATCTGAATTCCGGTCTCCC
DNA 2: TGGTGGCTACGACGGGATT
B10: UGUACAU (DNA:RNA)
RNA: B1 RNA with A26G, C27U, U28A, G30A
DNA 1: CAATCTGAATTCCGGTCTCCC
DNA 2: TGGTGGCTACGACGGGATT
B11: UUGAUGC (DNA:RNA)
RNA: B2 RNA with A25U, U27G, G29U, C30G
DNA 1: CAATCTGAATTCCGGTCTCCC
DNA 2: TGGTGGCTACGACGGGATT
B12: CGCCUAU (DNA:RNA)
RNA: B1 RNA with U25C, A26G, U28C, C29U, G30A
DNA 1: CAATCTGAATTCCGGTCTCCC
DNA 2: TGGTGGCTACGACGGGATT
B13: UAUCAGU (DNA:RNA)
RNA: B1 RNA with C27U, U28C, C29A
DNA 1: CAATCTGAATTCCGGTCTCCC
DNA 2: TGGTGGCTACGACGGGATT
B14: CGAAAAC (DNA:RNA)
RNA: B2 RNA with A25C, U26G, U27A, G29A, C30A
DNA 1: CAATCTGAATTCCGGTCTCCC
DNA 2: TGGTGGCTACGACGGGATT
B15: GUGACAC (DNA:RNA)
RNA: B2 RNA with A25G, U27G, G29C, C30A
DNA 1: CAATCTGAATTCCGGTCTCCC
DNA 2: TGGTGGCTACGACGGGATT
B16: GGAACCG (DNA:RNA)
RNA: B2 RNA with A25G, U26G, U27A, G29C, C31G
DNA 1: CAATCTGAATTCCGGTCTCCC
DNA 2: TGGTGGCTACGACGGGATT
B17: CAUCUUG (DNA:RNA)
RNA: B2 RNA with A25C, U26A, A28C, G29U, C30U, C31G
DNA 1: CAATCTGAATTCCGGTCTCCC
DNA 2: TGGTGGCTACGACGGGATT
B18: AGAUUCG (DNA:RNA)
RNA: B2 RNA with U26G, U27A, A28U, G29U, C31G
DNA 1: CAATCTGAATTCCGGTCTCCC
DNA 2: TGGTGGCTACGACGGGATT
B19: AUGGCCU (DNA:RNA)
RNA: B2 RNA with U27G, A28G, G29C, C31U
DNA 1: CAATCTGAATTCCGGTCTCCC
DNA 2: TGGTGGCTACGACGGGATT
B20: UUCGAAA (DNA:RNA)
RNA: B1 RNA with A26U, U28G, C29A, G30A, U31A
DNA 1: CAATCTGAATTCCGGTCTCCC
DNA 2: TGGTGGCTACGACGGGATT
B21: UUCCCCG (DNA:RNA)
RNA: B1 RNA with A26U, U28C, G30C, U31G
DNA 1: CAATCTGAATTCCGGTCTCCC
DNA 2: TGGTGGCTACGACGGGATT
B22: AAGGCGG (DNA:RNA)
RNA: B1 RNA with U25A, C27G, U28G, U31G
DNA 1: CAATCTGAATTCCGGTCTCCC
DNA 2: TGGTGGCTACGACGGGATT
B23: GAUUGCA (DNA:RNA)
RNA: B2 RNA with A25G, U26A, A28U, C31A
DNA 1: CAATCTGAATTCCGGTCTCCC
DNA 2: TGGTGGCTACGACGGGATT
B24: GUACGCU (DNA:RNA)
RNA: B2 RNA with A25G, U27A, A28C, C31U
DNA 1: CAATCTGAATTCCGGTCTCCC
DNA 2: TGGTGGCTACGACGGGATT
B25: CCCCAGA (DNA:RNA)
RNA: B1 RNA with U25C, A26C, U28C, C29A, U31A
DNA 1: CAATCTGAATTCCGGTCTCCC
DNA 2: TGGTGGCTACGACGGGATT
B26: ACCUCUU (DNA:RNA)
RNA: B1 RNA with U25A, A26C, G30U
DNA 1: CAATCTGAATTCCGGTCTCCC
DNA 2: TGGTGGCTACGACGGGATT
B27: GAUAAUC (DNA:RNA)
RNA: B2 RNA with A25G, U26A, G29A, C30U
DNA 1: CAATCTGAATTCCGGTCTCCC
DNA 2: TGGTGGCTACGACGGGATT
B28: UGGCCAA (DNA:RNA)
RNA: B1 RNA with A26G, C27G, U28C, G30A, U31A
DNA 1: CAATCTGAATTCCGGTCTCCC
DNA 2: TGGTGGCTACGACGGGATT
B29: UAGAAUA (DNA:RNA)
RNA: B1 RNA with C27G, U28A, C29A, G30U, U31A
DNA 1: CAATCTGAATTCCGGTCTCCC
DNA 2: TGGTGGCTACGACGGGATT
B30: GCCGGAC (DNA:RNA)
RNA: B2 RNA with A25G, U26C, U27C, A28G, C30A
DNA 1: CAATCTGAATTCCGGTCTCCC
DNA 2: TGGTGGCTACGACGGGATT
B31: AACCCGG (DNA:RNA)
RNA: B1 RNA with U25A, U28C, U31G
DNA 1: CAATCTGAATTCCGGTCTCCC
DNA 2: TGGTGGCTACGACGGGATT

biological target: T1, RBFOX1 RRM; test: EMSA; HiTS-Eq, 1 nM pool, 10 min; buffer printed only for the single-RNA assays: 10 mM Tris pH 7.5, 150 mM NaCl, 3.4 mM EDTA, 0.001% NP-40, 30 C; conditions: tags: His6 N-terminal (pET28a); label: 5' 32P
Procedure, shortened: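 Purified wild-type or mutant RbFox RRM at increasing concentrations was equilibrated with 1 nM of 5′-radiolabelled RNA carrying 7 randomized nucleotides for 10 min in 50 µL. Unbound RNA was separated by 8% native PAGE and sequenced. Relative association constants came from read-count changes of each RNA species compared with the control reaction, normalised to the cognate motif.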

Binder | binding signal
B1 | 0.0114 KA relative to UGCAUGU
B2 | 0.00447 KA relative to UGCAUGU
B3 | 0.0197 KA relative to UGCAUGU
B4 | 0.00694 KA relative to UGCAUGU
B5 | 0.0148 KA relative to UGCAUGU
B6 | 0.0103 KA relative to UGCAUGU
B7 | 0.00803 KA relative to UGCAUGU
B8 | 0.0132 KA relative to UGCAUGU
B9 | 0.00454 KA relative to UGCAUGU
B10 | 0.00935 KA relative to UGCAUGU
B11 | 0.0187 KA relative to UGCAUGU
B12 | 0.0034 KA relative to UGCAUGU
B13 | 0.0105 KA relative to UGCAUGU
B14 | 0.00128 KA relative to UGCAUGU
B15 | 0.00858 KA relative to UGCAUGU
B16 | 0.0141 KA relative to UGCAUGU

Binder | binding signal
B17 | 0.00714 KA relative to UGCAUGU
B18 | 0.012 KA relative to UGCAUGU
B19 | 0.0136 KA relative to UGCAUGU
B20 | 0.0104 KA relative to UGCAUGU
B21 | 0.00506 KA relative to UGCAUGU
B22 | 0.014 KA relative to UGCAUGU
B23 | 0.0277 KA relative to UGCAUGU
B24 | 0.00959 KA relative to UGCAUGU
B25 | 0.0107 KA relative to UGCAUGU
B26 | 0.0014 KA relative to UGCAUGU
B27 | 0.00765 KA relative to UGCAUGU
B28 | 0.011 KA relative to UGCAUGU
B29 | 0.00474 KA relative to UGCAUGU
B30 | 0.0111 KA relative to UGCAUGU
B31 | 0.00503 KA relative to UGCAUGU
